The campaign covered roughly 110,000 compounds. About 230 (0.21%) showed an effect of 50% or more. Some of the results follow.
The compounds below were run against DPAP1 (Plasmodium falciparum, UniProt Q8IIJ9) (assay: primary screen, percent inhibition; read by cleavage of a fluorogenic dipeptide substrate; higher = more effect of the substance).
Sequence of DPAP1 (Q8IIJ9 whole entry, looked up): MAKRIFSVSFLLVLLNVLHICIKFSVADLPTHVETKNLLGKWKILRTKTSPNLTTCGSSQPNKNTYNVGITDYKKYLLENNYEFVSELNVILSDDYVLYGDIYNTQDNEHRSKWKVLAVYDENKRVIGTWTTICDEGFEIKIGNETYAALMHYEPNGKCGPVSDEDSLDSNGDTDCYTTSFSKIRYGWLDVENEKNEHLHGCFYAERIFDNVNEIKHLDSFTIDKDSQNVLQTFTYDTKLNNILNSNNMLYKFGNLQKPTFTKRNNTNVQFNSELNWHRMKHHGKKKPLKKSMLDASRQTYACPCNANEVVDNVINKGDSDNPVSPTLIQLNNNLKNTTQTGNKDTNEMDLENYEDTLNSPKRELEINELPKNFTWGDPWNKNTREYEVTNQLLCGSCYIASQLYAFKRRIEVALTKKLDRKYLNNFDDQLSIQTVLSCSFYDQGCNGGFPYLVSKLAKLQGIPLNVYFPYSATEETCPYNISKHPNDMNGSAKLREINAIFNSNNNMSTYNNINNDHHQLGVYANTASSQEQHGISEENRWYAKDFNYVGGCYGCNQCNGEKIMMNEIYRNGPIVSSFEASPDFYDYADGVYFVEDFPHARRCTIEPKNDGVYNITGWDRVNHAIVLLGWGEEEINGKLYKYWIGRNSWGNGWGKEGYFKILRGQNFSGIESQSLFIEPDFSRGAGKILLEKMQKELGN
Design: species or system P. falciparum D10 trophozoite lysates; single well
For `O=C(CCC1CCCCC1)N[C@@H](CCc1ccccc1)C(=O)c1nc2ccccc2o1`, the “% Inhibition @ 10 uM” value was -5.21%.
`COc1cc(CNCCO)cc(Cl)c1OCc1ccc(F)cc1` was tested, and the “% Inhibition @ 10 uM” value was 0.189%.
For `CCOc1ccc(NC(=O)C2=C(C)NC(=O)NC2c2cccc(Br)c2)cc1` (centres unmarked), the “% Inhibition @ 10 uM” value was 4.75%.
In the case of `Cc1cccc(NC(=O)C(F)(OC(F)(F)C(F)(F)C(F)(F)F)C(F)(F)F)n1` (centres unmarked), the “% Inhibition @ 10 uM” value is reported as 5.98%.
In the case of `Cn1nnnc1SCCCNCc1c(F)cccc1Cl`, the “% Inhibition @ 10 uM” value is reported as 0.596%.
`CCOc1ccccc1N1CCN(C(=O)/C=C/c2ccc(F)cc2)CC1` was tested, and the “% Inhibition @ 10 uM” value was -1.66%.
With `CCC1CCc2c(sc(NC(=O)Nc3ccc(Cl)c(Cl)c3)c2C(N)=O)C1` (centres unmarked) the “% Inhibition @ 10 uM” value was 2.72%.
In the case of `COC(=O)c1ccc(-c2cc(C(=O)O)c3c(-c4ccc(C)cc4)[nH]nc3n2)cc1`, the “% Inhibition @ 10 uM” value is reported as -0.0401%.
With `COc1ccc(C2CC(=O)C3=C(C2)NC(=O)CC3c2cc(Br)c(O)c(OC)c2)cc1` (centres unmarked) the “% Inhibition @ 10 uM” value was 5.86%.
In the case of `COCCNC(C)Cc1ccc(F)cc1` (centres unmarked), the “% Inhibition @ 10 uM” value is reported as 1.57%.
In the case of `Oc1cccc(CN2CC=C(c3ccc(F)cc3)CC2)c1`, the “% Inhibition @ 10 uM” value is reported as -7.18%.
For `N#Cc1ccc(Cn2c(-c3cncs3)nc3ccccc32)cc1`, the “% Inhibition @ 10 uM” value was -3.39%.
In the case of `COc1cc(CCNc2ccc3nnc(-c4ccccc4)n3n2)cc(OC)c1OC`, the “% Inhibition @ 10 uM” value is reported as -3.08%.
In the case of `CC(=O)Nc1ccc(NC(=O)c2sc3cc(C)ccc3c2Cl)cc1`, the “% Inhibition @ 10 uM” value is reported as -4.49%.
In the case of `O=C(O)CCC(=O)n1ncc2c(Cl)cccc21`, the “% Inhibition @ 10 uM” value is reported as -1.7%.
In the case of `COC(C)(C)/C=C(\N)C(=O)c1ccccc1`, the “% Inhibition @ 10 uM” value is reported as 3.05%.
For `O=C(Nc1nccs1)c1cccc(F)c1`, the “% Inhibition @ 10 uM” value was -0.48%.
In the case of `CC1=C(C(=O)Nc2ccccc2)C(c2ccc(Cl)cc2)n2ncnc2N1` (centres unmarked), the “% Inhibition @ 10 uM” value is reported as -6.83%.
With `O=C1C2C(c3ccccc3)OC3(C(=O)c4ccccc4C3=O)C2C(=O)N1c1ccc(C(F)(F)F)cc1` (centres unmarked) the “% Inhibition @ 10 uM” value was 5.32%.
For `COc1cc(CN2CCN(C(=O)c3cccnc3)CC2)cc(OC)c1OC`, the “% Inhibition @ 10 uM” value was 3.95%.
In the case of `CC1(C)CC(=O)C2=C(C1)OC(N)=C(C#N)C2c1ccc(Cl)cc1Cl` (centres unmarked), the “% Inhibition @ 10 uM” value is reported as -0.128%.
With `O=C(Cn1ncc2c3ccccc3n(Cc3ccccc3F)c2c1=O)N1CCN(c2ccccn2)CC1` the “% Inhibition @ 10 uM” value was 4.95%.
With `Cc1oc2ncnc(NCCc3ccc(Cl)cc3)c2c1C(=O)O` the “% Inhibition @ 10 uM” value was -3.95%.
For `N#Cc1cc2c(nc1SCC(=O)Nc1nc3ccccc3s1)CCC2`, the “% Inhibition @ 10 uM” value was 2.09%.
For `N#CC1=C(N)Oc2[nH]nc(-c3ccncc3)c2C1c1ccsc1` (centres unmarked), the “% Inhibition @ 10 uM” value was -8.56%.
With `O=C(Nc1ccncc1)c1cc(-c2ccc(Cl)cc2)nc2ccccc12` the “% Inhibition @ 10 uM” value was -1.89%.
For `Cc1onc(-c2ccccc2Cl)c1C(=O)N1CCN(Cc2ccccc2)CC1`, the “% Inhibition @ 10 uM” value was -5.81%.
For `COc1ccc(C2C(C(=O)N3CCN(Cc4ccccc4)CC3)c3ccccc3C(=O)N2C)cc1` (centres unmarked), the “% Inhibition @ 10 uM” value was -2.04%.
In the case of `CCCN1C(=O)c2[nH]nc(-c3ccccc3)c2C1c1ccccn1` (centres unmarked), the “% Inhibition @ 10 uM” value is reported as -1.07%.
In the case of `CCOc1ccc(/C=c2/sc3nc(=O)c(C)nn3c2=O)cc1OCC`, the “% Inhibition @ 10 uM” value is reported as 0.222%.
`Cc1nc2sccn2c(=O)c1S(=O)(=O)NCc1ccccn1` was tested, and the “% Inhibition @ 10 uM” value was -4.04%.
For `O=C(COc1cccc(Cl)c1)Nc1nc(-c2ccc(F)cc2)cs1`, the “% Inhibition @ 10 uM” value was -1.44%.
In the case of `COc1ccc(S(=O)(=O)N2CCN(C/C=C/c3ccccc3)CC2)cc1C`, the “% Inhibition @ 10 uM” value is reported as -1.84%.
In the case of `COc1ccc2[nH]cc(CCNC(=O)NC34C[C@H]5C[C@@H](C3)C[C@@H](C4)C5)c2c1`, the “% Inhibition @ 10 uM” value is reported as 3.36%.
For `CS(=O)(=O)N(CC(=O)NC1CCCCC1)c1cc(Cl)cc(Cl)c1`, the “% Inhibition @ 10 uM” value was -1.37%.
For `CCCOc1cccc(C(=O)N(Cc2ccc(CC)cc2)C2CCS(=O)(=O)C2)c1` (centres unmarked), the “% Inhibition @ 10 uM” value was 3.72%.
With `CCOC(=O)N1CCC2(CC1)OC(=O)C(C)=C2C(=O)NCc1ccc(OC)cc1` the “% Inhibition @ 10 uM” value was -1.07%.
In the case of `Cc1cc(N2CCOCC2)c2c(N)ccc(C)c2n1`, the “% Inhibition @ 10 uM” value is reported as -2.97%.
With `Cc1nnc(NC(=O)CSc2nnc(Cc3cc(O)nc(O)n3)n2-c2ccc(F)cc2)s1` the “% Inhibition @ 10 uM” value was -11%.
In the case of `NCC12CC3CC(CC(O)(C3)C1)C2`, the “% Inhibition @ 10 uM” value is reported as -0.239%.
`O=C(Nc1c(O)c2ccccc2oc1=O)c1sc2ccccc2c1Cl` was tested, and the “% Inhibition @ 10 uM” value was -2.3%.
With `CC(C)(C)Nc1nc(Cl)nc(NCCO)n1` the “% Inhibition @ 10 uM” value was 3.9%.
With `CC/N=C1\S/C(=C\c2ccc(N(CC)CC)cc2)C(=O)N1CC` the “% Inhibition @ 10 uM” value was 0.189%.
For `CCOc1ccc(CCNC(=O)c2sc(-n3cccc3)nc2C)cc1OCC`, the “% Inhibition @ 10 uM” value was -2.37%.
For `CCCC[C@H](NC(=O)[C@H](CC(C)C)NC(=O)OCc1ccccc1)C(=O)CS(=O)(=O)N1CCCC1`, the “% Inhibition @ 10 uM” value was -1.82%.
For `CC(C)OCCCn1c(SCc2ccccc2Cl)nc2nccnc2c1=O`, the “% Inhibition @ 10 uM” value was -6.65%.
`CC1CCCC(C)N1C(=O)Cn1ncc2c3ccccc3n(Cc3ccccc3F)c2c1=O` (centres unmarked) was tested, and the “% Inhibition @ 10 uM” value was 6.46%.
`O=C(NCCN1CCOCC1)c1cc(-c2ccc(O)cc2)on1` was tested, and the “% Inhibition @ 10 uM” value was -1.28%.
For `CC(C)Sc1ncc(Cl)c(C(=O)NCc2ccccc2)n1`, the “% Inhibition @ 10 uM” value was 2.41%.
In the case of `Cc1ccc(NC(=O)CC2SC(Nc3ccc(C)cc3)=NC2=O)cc1` (centres unmarked), the “% Inhibition @ 10 uM” value is reported as -1.95%.
For `Cc1ccc(C2C=C(c3ccc(Br)cc3)Nc3nnnn32)c(C)c1` (centres unmarked), the “% Inhibition @ 10 uM” value was -11.1%.
With `O=C(/C=C\Nc1ccc2c(c1)OCO2)c1ccc(Cl)s1` the “% Inhibition @ 10 uM” value was -0.413%.
For `CC1=CC(=C2C(=O)NC(=O)NC2=O)C=C(C)N1c1ccc(C(=O)O)cc1`, the “% Inhibition @ 10 uM” value was 7.02%.
In the case of `CCN1CCN(C(=O)c2ccc(CS(=O)(=O)Cc3ccccc3Cl)o2)CC1`, the “% Inhibition @ 10 uM” value is reported as -1.79%.
For `O=C(NCCCN1CCCC1=O)c1ccc(-n2c(-c3ccccc3)cc3c2CCCC3)cc1`, the “% Inhibition @ 10 uM” value was 2.31%.
For `CC(C)C[C@H](NC(=O)c1ccc(-c2cc(C(=O)O)sc2Cl)cc1)C(=O)NCC#N`, the “% Inhibition @ 10 uM” value was -5.2%.
In the case of `CCc1c(C)nc2c(C)cccc2c1Cl`, the “% Inhibition @ 10 uM” value is reported as -8.72%.
In the case of `Cc1ccc(CN(Cc2ccco2)C(=S)NCC(=O)NC2CCC(C)CC2)cc1` (centres unmarked), the “% Inhibition @ 10 uM” value is reported as 2.9%.
In the case of `O=S(=O)(c1ccc(Cl)cc1)c1cnc2ccccc2c1N1CCCCC1`, the “% Inhibition @ 10 uM” value is reported as -10.2%.
For `O=c1c2nnn(Cc3ccc(F)cc3)c2ncn1Cc1ccccc1Cl`, the “% Inhibition @ 10 uM” value was -4.17%.
With `CCOc1ccccc1CNC(=O)c1cc2c(=O)n(Cc3cccs3)ccc2nc1C` the “% Inhibition @ 10 uM” value was -0.12%.
For `C=CCN(CC=C)Cc1c(O)ccc2oc(C)c(C(=O)NCc3ccccc3)c12`, the “% Inhibition @ 10 uM” value was -6.72%.

From PMC6919601, “Identification of Plasmodium dipeptidyl aminopeptidase allosteric inhibitors by high throughput screening” (PLoS ONE, 2019)
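Note: 30 min substrate incubation versus DMSO and 10 µM JCP410 controls.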
